Hit rate of the full screen: of about 150,000 compounds, about 540 (0.36%) showed an effect of 50% or more. This is one part of the list.
Each molecule was assayed on Plasmodium falciparum (assay: Primary screen in NF54 nanoGlo assay, in single point, at 2uM, 72h; a lower Z score goes with more inhibition). Conditions: timepoint 72 hour.
Format: functional, Erythrocyte
`CC(C)OC[C@H]1CN(C(=O)c2cnn(-c3ccncc3)c2)CCO1` was tested, and the “% Inhibition” value was -5% and the Z score was 0.65.
`Cc1cc(-c2ccc(C)c(S(=O)(=O)NCCN(CC(C)C)CC(C)C)c2)on1` was tested, and the “% Inhibition” value was -1% and the Z score was 0.09.
With `O=C(COCC(F)(F)F)N1CCC[C@H]1c1cccs1` the “% Inhibition” value was 5% and the Z score was -0.64.
With `Cc1ccc2oc(C(=O)N3CCO[C@H]4COCC[C@H]43)cc2n1` the “% Inhibition” value was 1% and the Z score was -0.26.
`COCCCCS(=O)(=O)N[C@@H](C)c1cccc(Cl)c1` was tested, and the “% Inhibition” value was 4% and the Z score was -0.71.
`O=C(NCc1ccc2c(c1)OCO2)N1CC(n2cc(C3CC3)nn2)C1` was tested, and the “% Inhibition” value was -17% and the Z score was 2.
In the case of `C#CCN1CCCC[C@H]1C(=O)N1CCC(n2nnc3c2CCCC3)CC1`, the “% Inhibition” value is reported as -10% and the Z score is reported as 1.69.
For `O=C(Nc1cccs1)N[C@H]1CO[C@@H](CN2CCC(F)(F)CC2)[C@@H]1O`, the “% Inhibition” value was 7% and the Z score was -0.8.
In the case of `Cc1cncc(CN2CCCCS2(=O)=O)c1`, the “% Inhibition” value is reported as 14% and the Z score is reported as -1.8.
In the case of `CCc1ncc(CNCC2(CC(C)C)CCC2)cn1`, the “% Inhibition” value is reported as -8% and the Z score is reported as 1.08.
`COc1ccccc1C(CNC(C)c1cc(C)n(C)n1)OC(C)C` (stereo unspecified) was tested, and the “% Inhibition” value was 0% and the Z score was 0.01.
For `COc1ccccc1C[C@@H](C)CC(=O)NCc1noc(C)n1`, the “% Inhibition” value was 1% and the Z score was -0.1.
With `CCN(CC)S(=O)(=O)c1c(OC)cc(C)c(Cl)c1C` the “% Inhibition” value was -1% and the Z score was 0.12.
For `CCCNC(=O)N1C[C@@H]2CCCN3CCC[C@@H]([C@H]23)[C@H]1CCCC(=O)Nc1ccccc1`, the “% Inhibition” value was 9% and the Z score was -1.74.
For `COc1nc(C)cc(NC2CC[C@@H](O)[C@@H](O)C2)n1` (stereo partly specified), the “% Inhibition” value was -16% and the Z score was 3.19.
For `C=CCn1nc(C(=O)O)c2c1CC[C@H](N(C)CC1(C)COC1)C2`, the “% Inhibition” value was -4% and the Z score was 0.81.
For `O=S(=O)(c1ccc(F)cc1)n1ccc(-c2cccc(OCc3ccc(Cl)cc3Cl)c2)n1`, the “% Inhibition” value was 39% and the Z score was -5.03.
For `Cc1noc(OCC(C)(C)ONC(=O)OC(C)(C)C)n1`, the “% Inhibition” value was 1% and the Z score was -0.23.
In the case of `CN1N=C(C(=O)NC2CCC3CCCCC3C2)CCC1=O` (stereo unspecified), the “% Inhibition” value is reported as 28% and the Z score is reported as -4.02.
In the case of `CC1(c2cnccn2)NC(=O)N(CC(O)CC2CCCC2)C1=O` (stereo unspecified), the “% Inhibition” value is reported as -3% and the Z score is reported as 0.5.
For `CNC(=O)NCC(=O)N1CCC[C@]1(C)Cc1ccc(Cl)s1`, the “% Inhibition” value was -14% and the Z score was 1.48.
In the case of `O=C(CCCc1ccccc1)Nc1cc(N2CCCC2=O)ccc1Cl`, the “% Inhibition” value is reported as -1% and the Z score is reported as 0.27.
With `CCc1ncc2c(n1)CN(C(=O)C(C)(C)Oc1ccc3c(c1)CCC3)C2` the “% Inhibition” value was 7% and the Z score was -1.3.
For `Cc1ccccc1CC(=O)N1CCC2(CCC(=O)N(CCc3c[nH]cn3)C2)CC1`, the “% Inhibition” value was -14% and the Z score was 1.75.
With `C[C@H]1CN(c2ccnc3c2cnn3C)CCN1S(C)(=O)=O` the “% Inhibition” value was 2% and the Z score was -0.45.
With `O=C(CN1CCOCC1)N1CCN(Cc2ccccc2)CC1` the “% Inhibition” value was -4% and the Z score was 0.74.
For `CS(=O)(=O)N1CCC(OCc2nc(-c3ccncc3)no2)CC1`, the “% Inhibition” value was 0% and the Z score was -0.03.
In the case of `CCn1cc(NC(=O)N2CCC[C@H]2c2ccc(F)cc2C)cn1`, the “% Inhibition” value is reported as -12% and the Z score is reported as 1.75.
In the case of `Cc1cc(C(=O)CN2CCCN(c3ccc(C(F)(F)F)cn3)CC2)c(C)n1C(C)C`, the “% Inhibition” value is reported as -9% and the Z score is reported as 1.38.
`COc1cccc(NS(=O)(=O)c2ccc(-c3ccno3)cc2OC)c1` was tested, and the “% Inhibition” value was -14% and the Z score was 2.41.
In the case of `C=C(C)CNC(=O)c1coc(COc2ccc3c(c2)OCO3)n1`, the “% Inhibition” value is reported as -21% and the Z score is reported as 1.86.
`Cc1c(F)cccc1C(=O)N1CCC[C@H](N2CCCS2(=O)=O)C1` was tested, and the “% Inhibition” value was -2% and the Z score was 0.3.
With `Cc1cccnc1CN(C)C(=O)c1cc(CO)ccn1` the “% Inhibition” value was -7% and the Z score was 0.94.
In the case of `Cc1cccc(C[C@H](C)NC(=O)c2ccc(C)n2C(F)F)n1`, the “% Inhibition” value is reported as -5% and the Z score is reported as 0.99.
`C[C@H](NC(=O)C1CC(=O)C1)C(C)(F)F` was tested, and the “% Inhibition” value was -6% and the Z score was 0.74.
With `Cc1ccc(S(=O)(=O)N2CC[C@]3(CCOC3)C2)cc1N(C)C` the “% Inhibition” value was -5% and the Z score was 0.75.
With `CC(C)Cn1ccnc1CN1C(=O)[C@@H]2CCCN2C1=O` the “% Inhibition” value was -14% and the Z score was 1.74.
For `O=C1CC(c2ccccc2)=NN1c1nc(-c2ccc(Cl)cc2)cs1`, the “% Inhibition” value was -10% and the Z score was 1.83.
`COCCN1C(=O)c2c(NC(C)=O)c3cc(OC)ccc3n2C[C@@]1(C)C(=O)NC1CCCCCCC1` was tested, and the “% Inhibition” value was -8% and the Z score was 0.78.
`Cc1cc(C)c(CNC(=O)c2cnccc2-c2noc(C)n2)c(=O)[nH]1` was tested, and the “% Inhibition” value was -6% and the Z score was 0.88.
With `CC(C)n1cncc1CN(C)C[C@H]1CCCCO1` the “% Inhibition” value was -9% and the Z score was 1.81.
`COc1ccc2c(c1)CN(Cc1ccccn1)CC[C@H]1COC(=O)N21` was tested, and the “% Inhibition” value was -16% and the Z score was 2.
For `COc1ccccc1-c1noc(C[C@H](C)c2c(C)n[nH]c2C)n1`, the “% Inhibition” value was -14% and the Z score was 2.04.

From ChEMBL document CHEMBL4888484, “Replenishing the malaria drug discovery pipeline: Screening and hit evaluation of the MMV Hit Generation Library 1 (HGL1) against asexual blood stage Plasmodium falciparum ,using a nano luciferase reporter read-out” (2022)
